Results are given in words; binding and its absence hold for the method and conditions named. For some of these results: Binding seen in cells or lysates may run through a third protein. Some entries that bind do so weakly or less than the wild type. For some of these results: Tags and fused reporters may be left off the sequences shown. Values belong to the binder of their own block, whether it stands above or below them.
How the values were obtained:
[1] = molecular target: T1, PDZD7 PDZ2 (a.a. 202-319) (mouse) (UniProt E9Q9W7); assay: condition: ~500 μM in the syringe, ~50 μM in the cell; ITC; MicroCal iTC200, 25°C; ~500 μM protein in the syringe titrated into ~50 μM partner in the cell; one-site binding model; both purified
T1 sequence: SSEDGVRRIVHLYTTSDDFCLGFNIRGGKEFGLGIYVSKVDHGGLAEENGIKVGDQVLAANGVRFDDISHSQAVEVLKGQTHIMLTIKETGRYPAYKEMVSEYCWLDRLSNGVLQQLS

PDZD7 PDZ3 H920A (mouse) = molecular target: T2, PDZD7 PDZ3 H920A (mouse) (UniProt E9Q9W7); assay: as above
T2 sequence: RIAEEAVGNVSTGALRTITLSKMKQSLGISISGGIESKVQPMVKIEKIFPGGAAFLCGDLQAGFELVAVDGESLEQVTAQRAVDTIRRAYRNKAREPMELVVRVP

PDZD7 PDZ3 R928A (mouse) = molecular target: T3, PDZD7 PDZ3 R928A (mouse) (UniProt E9Q9W7); assay: as above
T3 sequence: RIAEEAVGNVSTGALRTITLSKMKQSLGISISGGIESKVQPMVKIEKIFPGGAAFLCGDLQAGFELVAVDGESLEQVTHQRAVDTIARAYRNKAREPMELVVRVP

[2] = molecular target: T4, Whirlin NPDZ12 (a.a. 33-377, including NTD, PDZ1, and PDZ2) (UniProt Q9P202); assay: as above
T4 sequence: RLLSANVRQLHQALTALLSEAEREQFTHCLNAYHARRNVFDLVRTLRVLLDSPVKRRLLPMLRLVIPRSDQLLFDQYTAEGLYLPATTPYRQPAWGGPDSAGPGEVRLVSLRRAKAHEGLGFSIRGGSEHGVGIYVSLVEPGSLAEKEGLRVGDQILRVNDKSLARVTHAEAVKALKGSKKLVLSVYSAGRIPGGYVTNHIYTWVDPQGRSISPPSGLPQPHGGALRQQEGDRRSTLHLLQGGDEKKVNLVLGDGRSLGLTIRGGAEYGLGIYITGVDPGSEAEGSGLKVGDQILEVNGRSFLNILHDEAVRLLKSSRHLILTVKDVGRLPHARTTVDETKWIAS

[3] = molecular target: T5, Whirlin PDZ3 (a.a. 816-907) (UniProt Q9P202); assay: as above
T5 sequence: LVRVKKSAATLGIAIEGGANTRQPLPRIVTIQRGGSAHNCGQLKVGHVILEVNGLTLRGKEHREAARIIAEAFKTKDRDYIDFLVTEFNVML

[4] = molecular target: T6, PDZD7 PDZ1 (a.a. 81-167) (mouse) (UniProt E9Q9W7); assay: as above
T6 sequence: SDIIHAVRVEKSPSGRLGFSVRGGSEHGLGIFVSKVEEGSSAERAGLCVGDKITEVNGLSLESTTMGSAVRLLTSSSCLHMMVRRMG

[5] = molecular target: T7, PDZD7 PDZ3 (a.a. 842-946) (mouse, UniProt E9Q9W7 842-946); assay: as above
T7 construct: As used in ITC; also called WT PDZD7 PDZ3; source: E. coli BL21 (DE3), purified (nickel-NTA, SEC); not shown: Trx (from the vector pET.32M.3C)
T7 sequence (looked up): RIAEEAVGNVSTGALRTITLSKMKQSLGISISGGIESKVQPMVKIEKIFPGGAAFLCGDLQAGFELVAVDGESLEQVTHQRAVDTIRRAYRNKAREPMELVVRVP

Myc-PDZD7 (mouse) = molecular target: T8, Myc-PDZD7 (mouse) (UniProt E9Q9W7); assay: co-IP; HEK293T cells transfected with EGFP- and Myc-fusion proteins; lysate (150 mM NaCl, 50 mM Tris pH 7.5, 1% Triton X-100) on immobilized anti-Myc antibody, 4°C, 2 h; blot with anti-Myc or anti-GFP
T8 sequence: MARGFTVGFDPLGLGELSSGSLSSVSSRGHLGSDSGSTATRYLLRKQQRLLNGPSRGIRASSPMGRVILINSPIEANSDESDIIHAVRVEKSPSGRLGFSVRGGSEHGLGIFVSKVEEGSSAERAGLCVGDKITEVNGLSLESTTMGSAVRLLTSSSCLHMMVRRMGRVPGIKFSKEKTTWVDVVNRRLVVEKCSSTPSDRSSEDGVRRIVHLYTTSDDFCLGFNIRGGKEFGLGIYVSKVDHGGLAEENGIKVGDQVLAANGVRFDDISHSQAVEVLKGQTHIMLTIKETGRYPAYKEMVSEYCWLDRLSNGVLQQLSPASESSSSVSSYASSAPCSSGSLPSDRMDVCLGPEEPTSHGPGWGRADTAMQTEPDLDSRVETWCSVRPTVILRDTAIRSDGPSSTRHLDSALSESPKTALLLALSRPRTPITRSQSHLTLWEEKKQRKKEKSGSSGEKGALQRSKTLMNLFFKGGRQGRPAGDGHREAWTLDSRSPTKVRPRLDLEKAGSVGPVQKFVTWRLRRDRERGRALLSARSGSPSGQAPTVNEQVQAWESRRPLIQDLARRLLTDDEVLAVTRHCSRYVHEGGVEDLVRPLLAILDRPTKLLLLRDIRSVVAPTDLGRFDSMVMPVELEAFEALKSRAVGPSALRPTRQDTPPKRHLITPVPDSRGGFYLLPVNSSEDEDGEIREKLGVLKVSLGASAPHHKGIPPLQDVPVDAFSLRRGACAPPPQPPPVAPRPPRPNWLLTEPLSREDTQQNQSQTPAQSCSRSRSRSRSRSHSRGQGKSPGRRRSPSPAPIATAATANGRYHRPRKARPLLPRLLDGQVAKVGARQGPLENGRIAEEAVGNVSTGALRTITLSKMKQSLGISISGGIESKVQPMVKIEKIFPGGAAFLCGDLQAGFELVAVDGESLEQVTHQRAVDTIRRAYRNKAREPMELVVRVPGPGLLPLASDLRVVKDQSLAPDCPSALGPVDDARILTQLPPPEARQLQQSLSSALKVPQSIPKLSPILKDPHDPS

Myc-FCHSD2 = molecular target: T9, Myc-FCHSD2 (UniProt Q3USJ8); assay: as above
T9 sequence: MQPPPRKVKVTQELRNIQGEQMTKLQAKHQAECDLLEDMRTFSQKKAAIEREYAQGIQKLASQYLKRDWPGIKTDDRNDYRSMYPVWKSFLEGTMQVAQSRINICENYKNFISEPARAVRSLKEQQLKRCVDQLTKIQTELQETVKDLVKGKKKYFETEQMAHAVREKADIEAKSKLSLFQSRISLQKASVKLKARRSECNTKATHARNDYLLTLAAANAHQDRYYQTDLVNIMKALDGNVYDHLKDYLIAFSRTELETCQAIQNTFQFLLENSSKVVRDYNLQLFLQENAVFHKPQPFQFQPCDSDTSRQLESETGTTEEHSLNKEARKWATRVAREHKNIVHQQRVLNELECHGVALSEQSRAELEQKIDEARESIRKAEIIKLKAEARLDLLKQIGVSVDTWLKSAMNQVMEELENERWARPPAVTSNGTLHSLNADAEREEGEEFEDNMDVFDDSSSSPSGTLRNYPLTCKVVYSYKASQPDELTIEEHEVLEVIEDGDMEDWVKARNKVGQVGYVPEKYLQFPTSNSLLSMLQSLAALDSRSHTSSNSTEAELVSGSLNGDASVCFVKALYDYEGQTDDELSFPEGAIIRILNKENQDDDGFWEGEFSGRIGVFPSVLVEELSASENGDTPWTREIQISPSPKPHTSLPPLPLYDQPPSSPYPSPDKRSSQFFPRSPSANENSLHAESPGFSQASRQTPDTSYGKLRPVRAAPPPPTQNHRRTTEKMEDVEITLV

Trx-tagged PDZD7 PDZ3 = molecular target: T10, Trx-tagged PDZD7 PDZ3 (mouse, UniProt E9Q9W7 842-946); assay: SEC-MALS; Superose 12 10/300 GL column, miniDAWN and Optilab detectors; ~300 μl of 50 μM protein loaded; Trx-tagged proteins alone and mixed; both purified
T10 construct: As used in SEC-MALS, thioredoxin tag kept; monomer by SEC-MALS; also called Trx-PDZD7 PDZ3; source: E. coli BL21 (DE3), purified (nickel-NTA, SEC)
T10 sequence (looked up): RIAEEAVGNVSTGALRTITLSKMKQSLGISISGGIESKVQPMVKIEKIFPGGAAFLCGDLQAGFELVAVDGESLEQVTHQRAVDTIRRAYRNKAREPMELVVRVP

Trx-tagged FCHSD2 tail = Trx-tagged FCHSD2 tail (UniProt Q3USJ8); assay: as above

binding [1]: no binding
binding (PDZD7 PDZ3 H920A (mouse)): no binding
binding (PDZD7 PDZ3 R928A (mouse)): no binding
binding [2]: no binding
binding [3]: no binding
binding [4]: no binding
B1: FCHSD2 tail (a.a. 729-740) (peptide, UniProt Q3USJ8 729-740, looked up)
chain: TEKMEDVEITLV
notes: As used in ITC; also called WT FCHSD2 tail; source: E. coli BL21 (DE3), purified (nickel-NTA, SEC)

binding [5]: no binding
Binder: TEKMEDVEITLR (peptide, UniProt Q3USJ8 729-740) [FCHSD2 tail V740R]

binding (Myc-PDZD7 (mouse)): binds
B2: GFP-FCHSD2 (protein, UniProt Q3USJ8 1-740)
chain: MQPPPRKVKVTQELRNIQGEQMTKLQAKHQAECDLLEDMRTFSQKKAAIEREYAQGIQKLASQYLKRDWPGIKTDDRNDYRSMYPVWKSFLEGTMQVAQSRINICENYKNFISEPARAVRSLKEQQLKRCVDQLTKIQTELQETVKDLVKGKKKYFETEQMAHAVREKADIEAKSKLSLFQSRISLQKASVKLKARRSECNTKATHARNDYLLTLAAANAHQDRYYQTDLVNIMKALDGNVYDHLKDYLIAFSRTELETCQAIQNTFQFLLENSSKVVRDYNLQLFLQENAVFHKPQPFQFQPCDSDTSRQLESETGTTEEHSLNKEARKWATRVAREHKNIVHQQRVLNELECHGVALSEQSRAELEQKIDEARESIRKAEIIKLKAEARLDLLKQIGVSVDTWLKSAMNQVMEELENERWARPPAVTSNGTLHSLNADAEREEGEEFEDNMDVFDDSSSSPSGTLRNYPLTCKVVYSYKASQPDELTIEEHEVLEVIEDGDMEDWVKARNKVGQVGYVPEKYLQFPTSNSLLSMLQSLAALDSRSHTSSNSTEAELVSGSLNGDASVCFVKALYDYEGQTDDELSFPEGAIIRILNKENQDDDGFWEGEFSGRIGVFPSVLVEELSASENGDTPWTREIQISPSPKPHTSLPPLPLYDQPPSSPYPSPDKRSSQFFPRSPSANENSLHAESPGFSQASRQTPDTSYGKLRPVRAAPPPPTQNHRRTTEKMEDVEITLV

binding (Myc-FCHSD2): binds
B3: GFP-PDZD7 PDZ3 (a.a. 842-946) (domain or fragment, UniProt E9Q9W7 842-946)
chain: RIAEEAVGNVSTGALRTITLSKMKQSLGISISGGIESKVQPMVKIEKIFPGGAAFLCGDLQAGFELVAVDGESLEQVTHQRAVDTIRRAYRNKAREPMELVVRVP

binding (Trx-tagged PDZD7 PDZ3): no binding (tested: 50 μM loaded)
B4: Trx-tagged PDZD7 PDZ3 (domain or fragment, UniProt E9Q9W7 842-946)
chain: RIAEEAVGNVSTGALRTITLSKMKQSLGISISGGIESKVQPMVKIEKIFPGGAAFLCGDLQAGFELVAVDGESLEQVTHQRAVDTIRRAYRNKAREPMELVVRVP

binding [5]: no binding
Binder: TEKMEDVEIALV (peptide, UniProt Q3USJ8 729-740) [FCHSD2 tail T738A]

binding (Trx-tagged FCHSD2 tail): no binding (tested: 50 μM loaded)
B5: Trx-tagged FCHSD2 tail (peptide, UniProt Q3USJ8 729-740, looked up)
chain: TEKMEDVEITLV
notes: FCHSD2, residues 729-740; As used in SEC-MALS, thioredoxin tag kept; monomer by SEC-MALS; also called Trx-FCHSD2 tail; source: E. coli BL21 (DE3), purified (nickel-NTA, SEC)

binding [5]: no binding
Binder: TEKMEDVE (peptide, UniProt Q3USJ8 729-736) [FCHSD2 tail △PBM]

Source: publication PMC9317961, “Deafness-related protein PDZD7 forms complex with the C-terminal tail of FCHSD2” (Biochemical Journal, 2022)
